{"source": "PubChem BioAssay AID720736", "about": "(The Scripps Research Institute Molecular Screening Center, 2013)", "assay": "P. falciparum blood-stage growth inhibition, late-stage follow-up, M18AAP inhibitor project, cell-based, radiolabel, 3D7, RBCs, Set2 (AID 720736)", "conditions": "P. falciparum 3D7 in RBCs, 3H-hypoxanthine incorporation, 48 h; run 1; at 10 µM; stronger effect = higher value", "in_short": "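material = P. falciparum 3D7-infected RBCs | medium = hypoxanthine-free RPMI medium with 10% serum | timing = 48 h exposure, 37 °C, 5% O2/5% CO2/90% N2 | measured by = 3H-hypoxanthine uptake by beta counting | evaluation = % growth inhibition versus vehicle-treated parasites, background-subtracted | controls = vehicle-treated parasites and uninfected RBCs | repeats = triplicate wells per compound in one or two runs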", "note": "The source holds more than one record for some entries. The other results are left out here.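 Rule for the calls: active = growth inhibition of at least 50% in any replicate; inactive = growth inhibition below 50% in every replicate.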 There may be further records. The values listed for one entry repeat one measurement in other runs, samples, wells, individuals or studies. Marks in square brackets tell the records apart. The letters are not those of the source and start again with each entry.", "data": [{"smiles": "COc1ccc(CCN(C)c2c3ccccc3nc3ccccc23)cc1OC", "values": [{"measurement": "growth inhibition", "value": "96% [sample A] and inactive: 0% [sample B] and inactive: 0% [sample C]"}]}]}
